Data as given in the supplement of paper PMC10126150.
Sequences with one replicate were seen in a single cluster, so their values are uncertain.

tested on: ATP; assay: switch fluorescence ratio, 500 uM ATP over buffer (Cy3 cluster intensity, sum of 5 cycles each) (fold (ratio)); higher = stronger signal-on switching upon ATP binding; sequences stand for … in TCGTCGGCAGCGTCAGATGTGTATAAGAGACAGTTTTTTTTTTTTTTTTTTTTTTTTT…TC; details: aptamer strand: ATP DNA aptamer (quencher-CACCTGGGGGAGTATTGCGGAGGAAGG + anchor), 100 nM annealed; ATP concentration: 500 uM; one replicate
Outline: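 Switching-strand clusters labelled with Cy3 on a modified Illumina MiSeq flow-cell were annealed to 100 nM quencher-labelled ATP aptamer, imaged in selection buffer, and re-imaged after 15 min with 500 uM ATP at 22 °C. This was done over five cycles with NaOH stripping and re-annealing in between. The fluorescence ratio is summed target-cycle over summed buffer-cycle Cy3 intensity per cluster, averaged per switch-domain sequence, excluding clusters outside 100-1000 RFU.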
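Further: ATP exposure 15 min at 22 °C before imaging.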

Row | Sequence | switch fluorescence ratio
1 | GAGTTCTAAG | 0.986
2 | ATGAGTATGG | 0.982
3 | GTTTTGCACG | 1.01
4 | CTCTTATGAT | 0.975
5 | GCTTGAGGCC | 1.03
6 | CTGGAGTCCC | 1.02
7 | AACATTACCC | 1.13
8 | TCTTTACAT | 1.02
9 | AGCTCGTACC | 0.996
10 | TCGATCGTT | 0.952
11 | CACGGCCGGT | 0.996
12 | TCTTCTACAG | 1.03
13 | GTTACCTGGG | 1.41
14 | GACATCCTGC | 0.976
15 | CTTAGACTTG | 1.03
16 | CATTACACGG | 1.01
17 | AAGGCGTTAC | 1.28
18 | TAATCGCTTT | 0.952
19 | GATCCGAGAA | 1
20 | AGGCCATTGC | 1
21 | GACATAACCG | 1.08
22 | AGACGG | 0.928
23 | ACGGAATTAG | 1.11

Row | Sequence | switch fluorescence ratio
24 | GTCAACTGCG | 0.992
25 | TAGAGCGTTT | 0.985
26 | ACTGTGATCT | 1.03
27 | AGCCATGTGT | 1.03
28 | TTCCGGCAAC | 1.14
29 | CATGGCTTAA | 0.989
30 | TCAACACCTT | 1.19
31 | GACCATCGCT | 1.04
32 | TGGTTTGCTC | 0.967
33 | TCACGAAATA | 1.13
34 | CAATGGGGTC | 0.974
35 | AGAAGCGAAA | 1
36 | TACAAGTGG | 0.998
37 | GTTCGTTATT | 0.984
38 | ACTGGCACTT | 1.15
39 | AGTTGACTCC | 1.13
40 | ATCGTCACAG | 1.04
41 | AGCGTGTGGG | 1.02
42 | CCCGAACCCG | 1.04
43 | TTTTCGCGTA | 0.996
44 | CTAGGCGTTG | 0.942
45 | GGCGCGTTGG | 0.964
46 | GCGAATGTGG | 0.983

Row | Sequence | switch fluorescence ratio
47 | ACATGGCTGG | 1.02
48 | AGTATATTAG | 0.955
49 | TAATATAACA | 0.997
50 | TCGGAAGGTC | 1.05
51 | ATTCTAGGGG | 0.937
52 | CGTCACACAA | 1.2
53 | TTTTGTATAG | 1.01
54 | ACGGTCAGAT | 1.04
55 | GATACAACTC | 1
56 | AGGCAATGGA | 1.04
57 | TTATAAGCC | 1
58 | CACCTTGAAA | 0.967
59 | TCGGTAGAAA | 1.09
60 | CCGAATCAGC | 2.18
61 | CCTAAGGAAG | 0.97
62 | TAAGCGACAA | 1.05
63 | CTGCGGCAT | 1.29
64 | CTCGAAGCCG | 1.05
65 | TGATCTAGGG | 1.02
66 | GATATCGGGG | 0.999
67 | CCGGTAACTT | 1.06
68 | CATGCTGTT | 0.951
69 | CTTTGGGCTT | 1.02

Row | Sequence | switch fluorescence ratio
70 | GGAAGCTCGG | 1.01
71 | GTGAAATCTG | 0.887
72 | AGTTCGGGCC | 0.985
73 | TAGATTCTAA | 1.04
74 | TCTGATAT | 1.02
75 | GGAGTAATTA | 1.19
76 | TCCTGCGGAC | 2.95
77 | ACGGAGGGCG | 1.07
78 | ATCGGTTTAC | 0.989
79 | TGGAAGGAGT | 0.979
80 | GTTCTATTGA | 0.996
81 | GTGTCGGCTC | 1
82 | TTGGCCATTA | 0.987
83 | GGGAGGCTAA | 1.04
84 | CTGTTATGTC | 0.987
85 | GGTAGGCGGT | 0.99
86 | GGATCGCTGA | 0.964
87 | GATGATCAGC | 0.964
88 | TTAAAATTTG | 1
89 | TGTTGCACAC | 1.03
90 | GCTTGTAACC | 0.974
91 | AAGTAGGGCA | 0.973
92 | TTGGCCGGTG | 1.04

Row | Sequence | switch fluorescence ratio
93 | AACGGGAAGG | 1.04
94 | GATTTGATCG | 0.964
95 | ATATACGACG | 0.989
96 | TATAGGGCGC | 1.04
97 | TTCGTTACCC | 1.06
98 | TAATCGTGAC | 1.04
99 | ACGAGGTGCT | 1.06
100 | AGACCCCGT | 0.995
101 | GGCGCTAACC | 1.03
102 | ATGGTGTCAA | 0.997
103 | CACGCGCCCC | 1.32
104 | GCGAGATGGA | 1.04
105 | TTAGCATGGC | 0.992
106 | GTCATTACCT | 1.02
107 | GCGCGAGTCA | 1.03
108 | CCTCTCTACA | 1.22
109 | AACGGGGGGC | 1.06
110 | CAATAAAGTA | 1.04
111 | TTTACAAGCA | 1.11
112 | CTAGGGCG | 0.981
113 | ACTCAATGAC | 1.37
114 | AAGGCCTGGG | 0.977
115 | GCGGGGACT | 1.02

Row | Sequence | switch fluorescence ratio
116 | GATTATTTCC | 1.02
117 | AGTTTAATAT | 0.972
118 | GTTTTTCTCA | 0.979
119 | AGGTGCTGAT | 0.998
120 | TGATACGCT | 1.11
121 | ATGGCGTCC | 0.958
122 | AGAATTCGG | 1
123 | GAGGACCAGG | 1.04
124 | TCGGCCGAAG | 0.983
125 | AAAGACGGT | 0.988
126 | TAACACCTCC | 1.36
127 | CATTAGTAA | 1.02
128 | CGGATATAAA | 1
129 | TCCCGTACCT | 1.08
130 | TGCGGAGGGG | 0.971
131 | GAGTCTTCTT | 1.02
132 | AGGTAATTAA | 1.03
133 | TGTAGCGGC | 1.47
134 | AATCCAAATT | 0.997
135 | ATGTTTTGCC | 1.01
136 | TGGGACGGTG | 0.961
137 | CGTGACGAGA | 1.07
138 | TGTGCGTGCG | 0.978

Row | Sequence | switch fluorescence ratio
139 | TATACCTACG | 1.4
140 | AGAGATGGCC | 1.01
141 | CATACTCTTT | 1.05
142 | ACGCCAATAA | 5.62
143 | AGTGTTTTAC | 1
144 | TATAGAGGCA | 1
145 | CGTTTTGTAT | 0.999
146 | CCCGGCGCCC | 1.01
147 | GTTCGTTAAT | 1.01
148 | GCAGCCTACG | 1.11
149 | GATAATCAAA | 0.982
150 | CGGAACGGTA | 1.01
151 | GGTTATCTGC | 1.05
152 | TTGGTCCTAA | 1.03
153 | TCTCCTATAA | 1.3
154 | TATACATATT | 1.05
155 | TTGCGGTCGA | 1.01
156 | TATCGTGCCG | 0.992
157 | TTGGGCTGC | 1.38
158 | ATCTCCCAGG | 1.15
